# Assay results published in PubChem BioAssay AID1645882 (National Center for Advancing Translational Sciences (NCATS), 2021).
# The whole screen tested about 16,000 compounds, of which about 120 (0.75%) were called active. Roughly 4% stayed inconclusive and do not appear here. The call rests on the fitted dose curve; in most records, active means well fitted inhibition curve with a large enough effect; inconclusive means small, poorly fitted or top-dose-only effect; inactive means no such curve, though single readings can be large or run the other way. The list shows a part of the results.
# Molecular target: Rap guanine nucleotide exchange factor 3 (Homo sapiens) (UniProt O95398)
# Assay: Validation qHTS for antagonist of cAMP-regulated guanine nucleotide exchange factor 3 (EPAC1); further: nearly all actives have a fitted effect of over 75% in size;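 on activity change, negative = inhibition: plate controls were DMSO for no effect and ATA control for full effect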
# Details: EPAC1 Rap1B-BODIPY-GDP exchange, fluorescence; series mostly up to 150 µM; activity change, negative = inhibition: at the top concentration
# How it was run: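 Nucleotide exchange followed as fluorescence loss when BODIPY-GDP leaves Rap1B (480 nm excitation, 540 nm emission), read at 5 min intervals over 30 min. Reaction: 100 nM EPAC1, 250 nM RAP1B-BODIPY-GDP, 50 uM GDP; ATA and DMSO define normalization.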
# Potency means the concentration at half of the fitted maximal effect.
# Chain of UniProt O95398 (O95398 whole entry, looked up): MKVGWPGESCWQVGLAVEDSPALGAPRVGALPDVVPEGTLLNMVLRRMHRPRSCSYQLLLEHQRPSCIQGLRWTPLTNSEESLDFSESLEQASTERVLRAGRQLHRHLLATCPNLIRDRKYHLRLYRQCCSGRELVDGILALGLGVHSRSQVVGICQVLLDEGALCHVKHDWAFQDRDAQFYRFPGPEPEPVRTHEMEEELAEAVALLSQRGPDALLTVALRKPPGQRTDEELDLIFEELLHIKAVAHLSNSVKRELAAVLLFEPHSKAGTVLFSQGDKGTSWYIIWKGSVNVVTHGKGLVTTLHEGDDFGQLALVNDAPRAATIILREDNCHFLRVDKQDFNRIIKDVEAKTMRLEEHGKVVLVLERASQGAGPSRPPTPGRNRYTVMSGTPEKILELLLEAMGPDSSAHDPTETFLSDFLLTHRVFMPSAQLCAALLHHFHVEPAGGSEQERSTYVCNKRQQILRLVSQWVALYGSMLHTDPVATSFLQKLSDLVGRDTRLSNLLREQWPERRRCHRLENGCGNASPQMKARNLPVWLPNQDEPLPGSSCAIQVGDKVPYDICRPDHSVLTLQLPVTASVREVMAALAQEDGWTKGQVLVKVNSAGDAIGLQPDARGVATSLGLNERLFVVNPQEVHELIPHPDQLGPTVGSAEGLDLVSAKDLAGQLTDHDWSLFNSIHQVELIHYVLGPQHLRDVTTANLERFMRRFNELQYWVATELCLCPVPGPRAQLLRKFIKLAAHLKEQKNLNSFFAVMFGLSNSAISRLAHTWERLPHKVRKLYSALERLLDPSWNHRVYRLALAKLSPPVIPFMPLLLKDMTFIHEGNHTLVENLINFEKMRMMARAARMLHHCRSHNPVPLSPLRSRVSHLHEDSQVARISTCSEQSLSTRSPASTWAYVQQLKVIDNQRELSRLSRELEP
SMILES,"activity change, negative = inhibition",Potency
Cc1cnc(-n2ncc(C(=O)NCCN3CCOCC3)c2-c2cccs2)nc1-c1ccc(F)cc1,inactive: 14.9%,
COC1C[C@@H](O[C@@H]2C(C)C(=O)OC(C)C(C)C(O)C(C)C(=O)[C@@]3(CO3)CC(C)C(OC3OC(C)CC(N(C)C)C3O)C2C)OC(C)[C@@H]1O (some centres not stated),inactive: 13.3%,
Cn1c(=O)c(-c2cccs2)nc2cnc(Oc3ccccc3)nc21,inactive: 10.7%,
O=C1CCC(c2ccccc2)(C2CCN(Cc3ccccc3)CC2)C(=O)N1 (configuration not stated),inactive,
COc1ccc(C(=O)N2CCC[C@@]3(CCN(Cc4ccc(C#N)cc4)C3)C2)cc1,inactive: 13.3%,
CCCN1CCC(=O)N([C@H](CSc2ccccc2)CC(C)C)CC1,inactive: 7.13%,
CC1=C(/C=C/C(C)=C/C=C/C(C)=C/C(=O)Oc2c(C)c(C)c3c(c2C)CC[C@@](C)(CCC[C@H](C)CCC[C@H](C)CCCC(C)C)O3)C(C)(C)CCC1,inactive: 8.34%,
Cc1cccc(CNc2nc(-c3c(C)noc3C)nc3ccccc23)c1,inactive: 21.3%,
COc1ccc2c(c1)CCC1C2CC[C@@]2(C)C1CC[C@@H]2NCCCCCCN1C(=O)C=CC1=O (some centres not stated),inactive: -11.2% [at 75.8 µM],
O=S1(=O)CCOC[C@H](c2ccccc2)N1Cc1ccc(Cl)cc1Cl,inactive: -12.4%,
CC(=O)SCC[N+](C)(C)C,inactive: -7.24% [at 75.8 µM],
NC(=O)Cc1cccc(C(=O)c2ccccc2)c1N,inactive: 14.4%,
CN(Cc1ccco1)c1ncncc1-c1ccccc1Cl,inactive: 4.12%,
O=C(Nc1ccccc1)O[C@@H]1C[C@H]2CCC(=O)N3CC[C@@H](C1)[C@@H]23,inactive: -0.844%,
O=C(Nc1nc2ccccc2n1CCN1CCOCC1)c1cccc([N+](=O)[O-])c1,inactive: 8.52% [at 75.8 µM],
O=C(c1ccco1)N1CCC2(CC1)CCN(c1ccncc1)CC2,inactive: 17.7%,
Cc1ccccc1-c1cc(NCc2cccnc2)ncn1,inactive: 13.2%,
CC(C)COC(=O)OCN1C(=O)CN(CCN2CC(=O)N(COC(=O)OCC(C)C)C(=O)C2)CC1=O,inactive,
Cc1onc(-c2ccc3c(c2)OCO3)c1-c1ccc2[nH]ccc2c1,inactive: -3.69%,
COc1ccc(-n2c(=O)c(-c3cn(C)c4ccccc34)nc3cncnc32)cc1,inactive: -25.1%,
O=[N+]([O-])c1ccc2c(c1)S(=O)(=O)C=C2,inactive: 29.5% [at 75.8 µM],
C=CC1=C(C(=O)O)N2C(=O)[C@@H](NC(=O)/C(=N/OCC(=O)O)c3csc(N)n3)[C@H]2SC1 (stereo in doubt),inactive: -6.88% [at 75.8 µM],
Clc1ccccc1-c1ccc2ncnc(NCc3cccnc3)c2c1,inactive: 2.4%,
N#Cc1cccc(-c2nc3cnc(N4CCNCC4)nc3n(C3CC3)c2=O)c1,inactive: -21.9%,
CN(C)CCC(O)(c1ccccc1)c1ccccc1Cl (configuration not stated),inactive: 9.41%,
COc1ccc(-c2cn(Cc3ccc(C)cc3)nn2)cc1,inactive: 14.5%,

SMILES,"activity change, negative = inhibition",Potency
CCN1CCCC1CNC(=O)c1cnn(-c2nccc(-c3cc4ccccc4o3)n2)c1C1CC1 (configuration not stated),inactive: 14.2%,
c1ccc(C(c2ccccc2)N2CC[C@@]3(CCCNC3)C2)cc1,inactive: 18.6%,
N=C1N=C(N)c2cc3ccccc3cc21,inactive: 32.8% [at 320 µM],
COCCn1c(=O)c(-c2cccc(C#N)c2)nc2cnc(OC)nc21,inactive: -7.25%,
Nc1ccc(-c2ccc3ccccc3n2)cc1,inactive: 18.3% [at 75.8 µM],
CC[C@]1(O)C[C@H]2CN(CCC3=c4ccccc4=N[C]3[C@@](C(=O)OC)(c3cc4c(cc3OC)N(C)[C@H]3[C@@](O)(C(N)=O)[C@H](O)[C@]5(CC)C=CCN6CC[C@]43[C@@H]65)C2)C1,inactive: 22.8%,
CCn1c(-c2cccnc2)nc2cc(NC(=O)COC)cc(C(=O)N3CC[C@@H]4CCCC[C@H]4C3)c21,inactive: 4.7%,
O=[N+]([O-])c1cccc(S(=O)(=O)NCCNS(=O)(=O)c2cccc([N+](=O)[O-])c2)c1,inactive: -10.9%,
COc1[nH]c2ccc(F)cc2c1C(=O)OCC1CCN(CCNS(C)(=O)=O)CC1,inactive: 5.48%,
COc1ccccc1-n1cc(CN2CCOc3ccc(CN4C[C@@H](C)O[C@@H](C)C4)cc3C2)cn1,inactive: 0.205%,
COc1cccc(-c2cnc(-c3ccncc3)nc2C2CCN(C(=O)Cc3csc(C)n3)CC2)c1,inactive: 3.53%,
CN1CCN(c2ncc3nc(-c4ccccc4)c(=O)n(CCc4ccccc4)c3n2)CC1,inactive: -9.1%,
Cc1cc(N)c2cc(NC(=O)Nc3ccc4nc(C)cc(N)c4c3)ccc2n1,,active: 28.2 µM
CCn1c(-c2ccccc2F)nc2cc(NC(C)=O)cc(C(=O)N3CCCCC3c3nccn3C)c21 (configuration not stated),inactive: 5.39%,
CN(C)c1c(Cl)cc(/C=C/c2ccnc3ccccc23)cc1Br,inactive: -4.78%,
CN(C)/N=N/c1nc[nH]c1C(N)=O,inactive,
COc1ccc(CNc2ncnc3ccc(-c4cccc(NS(C)(=O)=O)c4)cc23)c(OC)c1,inactive: -18.4%,
Cc1nc2cnc(N3CCN(C)CC3)nc2n(C[C@H]2CCCO2)c1=O,inactive: 8.63%,
CCCCCC1Nc2cc(C(F)(F)F)c(S(N)(=O)=O)cc2S(=O)(=O)N1 (configuration not stated),inactive: 22.1%,
Cc1cc(C(=O)Nc2cccc(-c3nc(CNC(=O)c4cc5ccccc5[nH]4)c(C)o3)c2)c(C)o1,inactive: 15.4%,
CCCCOC(=O)c1ccc(N)cc1,inactive: -2.29%,
CCCCC[C@H](O)/C=C/[C@H]1C=CC(=O)[C@@H]1CCCCCCC(=O)O,inactive: 29.3% [at 15.3 µM],
NCCCCCCNS(=O)(=O)c1ccc2c(Cl)cccc2c1,inactive: 18.5%,
CN1CCCCCC1C(=O)NCCN1Cc2ccccc2OC(c2ccsc2)C1 (configuration not stated),inactive: 17.3%,
O=C(Nc1ccc(C(=O)O)c(O)c1)c1ccccc1,inactive: 4.9%,
Clc1ccccc1-c1nc(NCCN2CCOCC2)c2ccccc2n1,inactive: 7.34%,

SMILES,"activity change, negative = inhibition",Potency
Cc1ccccc1-c1cc(NCCN2CCOCC2)ncn1,inactive: 6.74%,
C[N+]1(CC(=O)c2ccc(Cl)cc2)CCOCC1,inactive: 20.7%,
O=C(O)CCC/C=C\C[C@@H]1[C@@H](/C=C/[C@@H](O)COc2cccc(C(F)(F)F)c2)[C@H](O)C[C@@H]1O,inactive: 4.3%,
C[C@@H](CSc1ccccc1)CN1CC[C@H](NC(=O)OCc2ccccc2)CCC1=O,inactive: -14.1%,
COCCNc1ncnc2ccc(-c3cccnc3)cc12,inactive: 6.05%,
COc1cccc(-c2nc3cc4c(cc3cc2CN(C(=O)c2cccs2)C2CC2)CCC4)c1OC,inactive: -9.11%,
COc1ccc(Cc2cnc(N)nc2N)cc1OC,inactive: 5.06%,
O=[N+]([O-])c1cccc2c(Br)[nH]nc12,inactive,
COc1ccccc1CNc1ncncc1-c1ccccc1CN(C)C,inactive: -0.669%,
COC(=O)C[C@H]1c2cc(F)ccc2S(=O)(=O)N1Cc1ccccc1OC,inactive: -3.88%,
CS(=O)(=O)N1CCC2(CCN(Cc3ccncc3)CC2)CC1,inactive: 6.06%,
NC1(C(=O)O)CCC1,inactive: 8.57%,
CC(Cc1ccccc1)(NC(=O)CN)c1ccccc1 (configuration not stated),inactive: 6.18%,
O=c1cnc2cnc(Oc3ccccc3)nc2n1Cc1ccc(F)cc1,inactive: -13.3%,
CC(CN1c2ccccc2Sc2cccnc21)N(C)C (configuration not stated),inactive: 14.6%,
Cc1c(C(=O)N2CC3CCC2C3)sc2ncnc(NCCc3ccccn3)c12 (configuration not stated),inactive: 1.13%,
O=c1c(-c2cccs2)nc2cnc(N3CCOCC3)nc2n1-c1ccccc1,inactive: 7.86%,
CC(C)(C)C(=O)OCOC(=O)[C@@H]1N2C(=O)[C@@H](NC(=O)[C@H](N)c3ccccc3)[C@H]2SC1(C)C,inactive: -14.3% [at 75.8 µM],
O=C(OCc1ccccc1)c1ccc(O)cc1,inactive: -5.07%,
O=c1c(-c2ccccc2)nc2cnc(Nc3ccccc3)nc2n1C[C@H]1CCCO1,inactive: -10.1%,
CCc1cc[n+](CC(=O)c2ccc(F)cc2)cc1C(=O)O,inactive: 19.8%,
COc1cc(CN2CCC3(CCC(CNC(=O)c4ccco4)O3)CC2)cc(OC)c1 (configuration not stated),inactive: 17.7%,
NC(Cc1c[nH]c2ccccc12)C(=O)NCC(=O)O (configuration not stated),inactive: 11.3%,
O=C(c1cc(C(F)(F)F)cc(C(F)(F)F)c1)N1CCC2(CC1)CN(c1ccccc1)C2,inactive: -14.6%,
Cc1noc(C)c1-c1nc(N2CCOCC2)c2ccccc2n1,inactive: 27.9%,
CC(=O)CCC(=O)O,inactive: 13.7%,

SMILES,"activity change, negative = inhibition",Potency
Cc1nn(-c2ccccc2)c(C)c1CC(=O)NCC1Cc2cc(F)cc(-c3cccnc3)c2O1 (configuration not stated),inactive: 5.66%,
CN1CCN(c2ncc3ncc(=O)n(Cc4cccs4)c3n2)CC1,inactive: 12.1%,
N#Cc1cccc(-c2nc(NCCN3CCOCC3)c3ccccc3n2)c1,inactive: 4.16%,
CC(=O)NC(CCC(=O)O)C(=O)O (configuration not stated),inactive: 1.05%,
COc1cccc(OC)c1OCCNCC1COc2ccccc2O1 (configuration not stated),inactive,
CC(C)C1NC(C(=O)O)Cc2c1[nH]c1ccccc21 (configuration not stated),inactive: 26.8%,
CN(C)C(=O)c1ccc(-c2ccc3ncnc(NC4CC4)c3c2)cc1,inactive: -5.36%,
CC1C(O)CC2C(C(=O)O)=CO[C@@H](O[C@H]3OC(CO)C(O)C(O)C3O)C21 (some centres not stated),inactive: 9.38%,
O=c1c(CCc2ccccc2)nc2cnc(N3CCOCC3)nc2n1Cc1cccs1,inactive: 5.68%,
CCOc1ccc(C(=O)c2ccc(OC)c(O)c2O)cc1,inactive: -5.19%,
O=C1NCN(c2ccccc2)C12CCN(CCCC(c1ccc(F)cc1)c1ccc(F)cc1)CC2,inactive,
O=C(Nc1ccccc1)N1CCCC2(CCN(S(=O)(=O)c3ccccc3)CC2)C1,inactive: 8.56%,
Cc1cc(-c2ccnc(-n3ncc(C(=O)NCC4CCCO4)c3C3CC3)n2)c(C)s1 (configuration not stated),inactive: 22.3%,
COc1ccc(Oc2ncc3nc(C)c(=O)n(Cc4cccs4)c3n2)cc1,inactive: 9.69%,
COc1cccc(-c2nc(NCc3cccs3)c3ccccc3n2)c1,inactive: -3.5%,
OC1(c2cccnc2)CCN(Cc2ccc3c(c2)CN(Cc2cccc4nccnc24)CCO3)CC1,inactive: 1.4%,
Cn1nnnc1SCC1=C(C(=O)O)N2C(=O)C(NC(=O)C(OC=O)c3ccccc3)C2SC1 (configuration not stated),inactive: 10.2%,
COc1ncc2nc(-c3ccccc3)c(=O)n(Cc3cccs3)c2n1,inactive: -2.57%,
COC(=O)[C@H]1C2CC3c4[nH]c5ccccc5c4CCN3CC2CC[C@@H]1O (some centres not stated),inactive: 7.45%,
COc1c2ccoc2nc2c(OC)c(O[C@@H]3O[C@H](C)[C@@H](O)[C@@H](O)[C@H]3O)ccc12,inactive: -8.46%,
COc1cc(CNS(=O)(=O)CCl)cc(OC)c1OC,inactive: 9.12%,
CCCC(=O)O,inactive: -5.51%,
C[C@]12CC[C@@H]3c4ccc(O)cc4CC[C@H]3[C@@H]1CC[C@@H]2OC(=O)CCC1CCCC1,inactive,
N=C(C[C@@H](O)COc1ccccc1-c1ccccc1)N1CCCCC1,inactive: 8.43%,
